Source: PubChem BioAssay (Tox21)
Several values for one entry are separate records, joined by “and”; a condition that tells them apart may be missing. Equal entries are not always repeated. The shares of active, inactive and inconclusive entries below differ from those in the screen. For some assays here: Where the call is inconclusive, the potency comes from a doubtful curve fit. Activity calls are given as the source filed them. Unless noted, calls follow the shape of the dose curve; as a rule, active = well fitted curve in the direction sought with a large enough effect in the repeat runs; inconclusive = weak or mixed curves; inactive = no such curve, though single readings can be large; an effect the other way counts as inactive or inconclusive.

Columns and labels:
[1] = qHTS assay for small molecule agonists of the p53 signaling pathway (AID 651631; calls by dose curve; also: nearly all actives have a fitted effect of over 15% in size; as to activation: % is scaled to controls: 0 for no effect and ±100 for the full control effect); settings: HCT-116 p53RE-bla reporter, beta-lactamase FRET ratio, 16 h; activation: at 73.3 µM (top of the series) unless noted
Summary of the method: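 HCT-116 cells carrying a beta-lactamase reporter under p53 response elements were dosed with compound for 16 h at 37 °C. LiveBLAzer B/G FRET substrate was then added for 2 h at room temperature, and fluorescence intensity was read to detect pathway agonism.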

[2] = qHTS assay for small molecules that induce genotoxicity in human embryonic kidney cells expressing luciferase-tagged ATAD5 (AID 651632); also: nearly all actives have a fitted effect of over 15% in size; as to activation: % is scaled to controls: 0 for no effect and ±100 for the full control effect
Summary of the method: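 DMSO vehicle served as the control. HEK293T reporter cells, 16 hr at 37C, then 30 min Amplite at room temperature; ATAD5 induction is measured as luciferase activity.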

[3] = qHTS assay for small molecule disruptors of the mitochondrial membrane potential (AID 720635); settings: HepG2 mitochondrial membrane potential, Mito-MPS dye ratio; as to ratio activity, negative = MMP loss: % is scaled to controls: 0 for no effect and ±100 for the full control effect
Summary of the method: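 HepG2 cells (2,000/well) attached overnight at 37C, then took compound for 1 hr at 37C, 5% CO2. Mito-MPS dye was added for 30 min; fluorescence was read at 490/535 nm (monomers) and 540/590 nm (aggregates).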

[4] = target: Glucocorticoid receptor (Homo sapiens) (UniProt P04150); test: qHTS assay to identify small molecule antagonists of the glucocorticoid receptor (GR) signaling pathway (AID 720692; active = well fitted inhibition curve with a large enough effect in the signal ratio in the repeat runs, not every such curve was filed as active; inconclusive = weak or mixed curves, or effect the other way; inactive = no such curve, though single readings can be large or run the other way; the % refers to the signal ratio; as to activity change, negative = inhibition: % is scaled to controls: 0 for no effect and ±100 for the full control effect); settings: GR-bla HeLa, beta-lactamase FRET ratio, dexamethasone-stimulated, 18 h; activity change, negative = inhibition: at 58.5 µM (top of the series) unless noted
Summary of the method: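 In a 1536-well cell format, compounds were added 4 h after seeding GR-bla HeLa cells, together with dexamethasone at 5 nM final; reporter activity was measured by FRET-substrate fluorescence following 18 h at 37 C.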

[5] = qHTS assay for identifying genotoxic compounds that show differential cytotoxicity against isogenic chicken DT40 cell lines with known DNA damage response pathways - Rev3 mutant cell line (AID 743014); settings: chicken DT40 Rev3-/- viability, CellTiter-Glo, 40 h; activity, negative = cytotoxicity: at 68.4 µM (top of the series); also: nearly all actives have a fitted effect of over 55% in size
[6] = qHTS assay for identifying genotoxic compounds that show differential cytotoxicity against isogenic chicken DT40 cell lines with known DNA damage response pathways - Rad54/Ku70 mutant cell line (AID 743015); settings: DT40 Rad54/Ku70 mutant viability, CellTiter-Glo, 40 h; activity change, negative = cytotoxicity: at 66.8 µM (top of the series); also: nearly all actives have a fitted effect of over 60% in size
[7] = qHTS assay for small molecule agonists of the p53 signaling pathway - cell viability (AID 651633; calls by dose curve; also: nearly all actives have a fitted effect of over 30% in size)
Summary of the method: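 p53RE-bla cells, seeded at 4,000 per well and rested 5 h at 37 C/5% CO2, received compounds in DMSO for 16 h at 37 C. CellTiter-Glo was then added, and luminescence was read after 30 min at room temperature to gauge cytotoxicity.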

[8] = qHTS assay for small molecules that induce genotoxicity in human embryonic kidney cells expressing luciferase-tagged ATAD5 - cell viability (AID 651634; calls by dose curve; also: nearly all actives have a fitted effect of over 25% in size)
Summary of the method: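 Here HEK293T cells with the ATAD5 luciferase reporter are incubated with test compounds for 15.5 hr, and cytotoxicity is then gauged by measuring protease activity in live cells using fluorescence.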

[9] = qHTS assay to identify small molecule antagonists of the glucocorticoid receptor (GR) signaling pathway - cell viability counter screen (AID 720693); settings: GR-bla HeLa viability, CellTiter-Glo luminescence, 18 h, with 5 nM dexamethasone present; viability change, negative = cytotoxic: at 58.5 µM (top of the series) unless noted; also: nearly all actives have a fitted effect of over 55% in size
[10] = qHTS assay for identifying genotoxic compounds that show differential cytotoxicity against isogenic chicken DT40 cell lines with known DNA damage response pathways - wild type cell line (AID 743012); settings: DT40 wild type chicken cells viability, CellTiter-Glo, 40 h; activity change, negative = cytotoxicity: at 68.4 µM (top of the series) unless noted; also: nearly all actives have a fitted effect of over 60% in size
Summary of the method: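 Viability of DNA repair-proficient chicken DT40 cells was assessed by CellTiter-Glo luminescence following 40 h compound exposure at 37 C/5% CO2.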

[11] = qHTS assay to identify small molecule antagonists of the androgen receptor (AR) signaling pathway - cell viability counter screen (AID 743033; also: nearly all actives have a fitted effect of over 45% in size); settings: AR-bla HEK293 viability, CellTiter-Glo luminescence, 16 h; activity change, negative = cytotoxicity: at 58.5 µM (top of the series)
[12] = qHTS assay for small molecule disruptors of the mitochondrial membrane potential - cell viability (AID 720634; calls by dose curve; also: nearly all actives have a fitted effect of over 20% in size)
Summary of the method: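 Viability of HepG2 cells is scored from ATP content by luminescence; cells are exposed to compound for 1 hr at 37 C and 5% CO2, then dosed with m-MPI dye before the CellTiter-Glo reagent.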

[13] = target: Glucocorticoid receptor (Homo sapiens) (UniProt P04150); test: qHTS assay to identify small molecule agonists of the glucocorticoid receptor (GR) signaling pathway (AID 720691; active = well fitted activation curve with a large enough effect in the signal ratio in the repeat runs, not every such curve was filed as active; inconclusive = weak or mixed curves, or effect the other way; inactive = no such curve, though single readings can be large or run the other way; the % refers to the signal ratio); settings: GR-bla HeLa, beta-lactamase reporter ratio, 18 h; activation: at 62.4 µM (top of the series) unless noted
Summary of the method: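 Compounds in DMSO, alongside positive controls, were added to GR-bla HeLa reporter cells and incubated 18 h at 37 C; GRE-driven beta-lactamase was detected by fluorescence after 2 h with FRET substrate at room temperature.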

[14] = ratio activity, negative = MMP loss: at 83.2 µM (top of the series) unless noted
Potency is read from the fitted curve at half-maximal effect; tags tell the direction and shape of the fitted curve or compound fluorescence and quenching.

Chain of UniProt P04150 (P04150 whole entry, looked up): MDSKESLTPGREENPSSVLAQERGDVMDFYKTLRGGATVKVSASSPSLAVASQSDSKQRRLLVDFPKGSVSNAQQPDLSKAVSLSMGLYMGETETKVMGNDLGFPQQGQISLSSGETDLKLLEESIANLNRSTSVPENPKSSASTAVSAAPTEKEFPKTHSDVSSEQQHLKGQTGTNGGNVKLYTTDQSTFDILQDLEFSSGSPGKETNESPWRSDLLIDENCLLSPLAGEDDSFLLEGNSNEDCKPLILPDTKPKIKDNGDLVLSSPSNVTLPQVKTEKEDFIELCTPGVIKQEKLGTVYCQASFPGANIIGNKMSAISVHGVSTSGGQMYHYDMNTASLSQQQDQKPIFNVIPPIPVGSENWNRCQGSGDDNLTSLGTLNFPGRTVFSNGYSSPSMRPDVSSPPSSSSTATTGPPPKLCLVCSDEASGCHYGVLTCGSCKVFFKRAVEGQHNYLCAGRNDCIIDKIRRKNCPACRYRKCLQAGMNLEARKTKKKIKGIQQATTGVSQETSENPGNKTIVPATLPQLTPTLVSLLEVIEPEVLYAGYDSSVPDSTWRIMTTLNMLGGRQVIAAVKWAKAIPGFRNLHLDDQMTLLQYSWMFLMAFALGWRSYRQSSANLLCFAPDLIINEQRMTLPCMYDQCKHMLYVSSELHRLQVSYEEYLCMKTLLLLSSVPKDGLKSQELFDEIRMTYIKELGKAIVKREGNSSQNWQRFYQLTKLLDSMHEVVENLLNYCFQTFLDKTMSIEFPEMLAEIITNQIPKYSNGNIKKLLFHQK

With `Cc1cccc(N)c1N` the Potency [1] was inconclusive: 66.3 µM [activator, single point], the activation [1] was inconclusive: 6.22% and the Potency [2] was “inactive”. For the same molecule, the Potency [3, 14] was active: 21 µM and active: 17.2 µM, the Potency [4] was “inactive” and the Potency [5] was inconclusive: 23.5 µM [cytotoxic] and active: 19.3 µM. For the same molecule, the Potency [6] was inconclusive: 23.5 µM [cytotoxic, partial curve].

In the case of `C=CC(=O)OCCCCOC(=O)C=C`, the Potency [1] is reported as inconclusive: 43.3 µM [activator, partial curve, poor fit], the Potency [2] is reported as inconclusive: 27.3 µM [activator] and the Potency [7] is reported as inconclusive: 24.3 µM [cytotoxic, partial curve, poor fit]. For the same molecule, the Potency [8] was active: 54.5 µM, the Potency [4] was active: 24.5 µM and the Potency [9] was inconclusive: 21.9 µM [cytotoxic, full curve]. The Potency [10] was active: 27.3 µM, the Potency [6] was active: 27.3 µM and the Potency [11] was inconclusive: 34.7 µM [cytotoxic, partial curve, poor fit].

In the case of `C=CC(=O)OCC(CC)(COC(=O)C=C)COC(=O)C=C`, the Potency [1] is reported as inconclusive: 6.28 µM and inconclusive: 27.3 µM [cytotoxic], the Potency [2] is reported as inconclusive: 7.7 µM [activator, partial curve] and the Potency [7] is reported as active: 35.3 µM and inconclusive: 61.1 µM [cytotoxic, partial curve, poor fit]. The Potency [12] was inconclusive: 79 µM [cytotoxic, single point], the Potency [3, 14] was active: 62.8 µM and inconclusive: 68.6 µM [inhibitor, single point] and the Potency [13] was inconclusive: 20 µM [cytotoxic, full curve] and inconclusive: 17.4 µM [cytotoxic, partial curve]. The Potency [4] was inconclusive: 50.3 µM [cytotoxic, partial curve] and inconclusive: 38.9 µM [cytotoxic, partial curve], the Potency [9] was active: 12.6 µM and active: 11 µM and the Potency [5] was active: 1.58 µM and active: 3.06 µM. The Potency [11] was active: 7.97 µM and active: 12.3 µM.

For `CCCCNC(=O)n1c(NC(=O)OC)nc2ccccc21`, the Potency [1] was active: 13.6 µM and active: 15.4 µM, the Potency [2] was inconclusive: 54.2 µM [activator, partial curve, poor fit] and the ratio activity, negative = MMP loss ([3]; at 83.2 µM (top of the series)) was inactive: -14.5%. For the same molecule, the ratio activity, negative = MMP loss [3, 14] was inconclusive: -40.3%, the Potency [5] was active: 5.42 µM and active: 6.86 µM and the Potency [11] was inconclusive: 6.88 µM [cytotoxic, partial curve, poor fit] and inconclusive: 19.5 µM [cytotoxic, partial curve, poor fit].

In the case of `CCOC(=O)CC(=O)CCl`, the Potency [1] is reported as active: 68.6 µM, the Potency [2] is reported as inconclusive: 34.4 µM [activator, partial curve, poor fit] and the Potency [7] is reported as inconclusive: 54.5 µM [cytotoxic, partial curve, poor fit]. The Potency [8] was inconclusive: 30.6 µM [falling, partial curve, poor fit], the Potency [3, 14] was inconclusive: 48.6 µM [activator, partial curve] and the Potency [13] was “inactive”. The activity change, negative = inhibition [4] was inconclusive: -19.8% and the Potency [6] was active: 24.3 µM.

With `S=C=NCCc1ccccc1` the Potency [1] was inconclusive: 15.4 µM [activator, full curve, poor fit], the Potency [2] was inconclusive: 68.7 µM [activator, single point] and the Potency [8] was inconclusive: 77.1 µM [falling, single point]. For the same molecule, the Potency [4] was inconclusive: 55.1 µM [cytotoxic, single point], the Potency [9] was inconclusive: 55.1 µM [cytotoxic, single point] and the Potency [5] was inconclusive: 68.7 µM [cytotoxic, partial curve, poor fit].

For `O=[N+]([O-])c1cc(C(F)(F)F)c(Cl)c([N+](=O)[O-])c1Cl`, the Potency [1] was inconclusive: 30.6 µM [cytotoxic, partial curve], the Potency [2] was inconclusive: 1.72 µM [activator, full curve, poor fit] and the Potency [8] was active: 24.3 µM. For the same molecule, the Potency [12] was active: 15.4 µM, the Potency [3, 14] was active: 13.7 µM and the Potency [13] was inconclusive: 61.6 µM [cytotoxic, single point]. For the same molecule, the Potency [4] was inconclusive: 49 µM [cytotoxic, single point], the Potency [10] was active: 0.386 µM and the Potency [11] was active: 21.9 µM.

With `CN(C)c1ccc(N=O)cc1` the Potency [1] was inconclusive: 68.8 µM [activator] and inconclusive: 27.3 µM [activator, single point], the Potency [7] was inconclusive: 38.6 µM [cytotoxic, partial curve, poor fit] and the Potency [8] was active: 61.3 µM and active: 54.5 µM. The Potency [12] was active: 17.3 µM and active: 48.6 µM, the Potency [3, 14] was inconclusive: 30.6 µM [inhibitor, partial curve, poor fit] and the ratio activity, negative = MMP loss [3, 14] was inconclusive: -11.2%. For the same molecule, the Potency [13] was inconclusive: 31 µM [cytotoxic, partial curve], the Potency [4] was inconclusive: 61.8 µM [cytotoxic] and active: 38.9 µM and the Potency [9] was active: 39 µM and active: 43.6 µM. The Potency [11] was active: 12.3 µM and active: 43.6 µM.
